Variants at the floor of the assay are shown more often than the library holds them.
B1: TPR 5TU (parent)
chain: GGAUCUUCUCGAUCUAACAAAAAAGACAAAUCUGCCACAAAGCUUGAGAGCAUCUUCGGAUGCAGAGGCGGCAGCCUUCGGUGGCGCGAUAGCGCCAACGUUCUCAACUAUGACACGCAAAACGCGUGCUCCGUUGAAUGGAGUUUAUCAUG

Variants of: B1
Test: polymerase ribozyme fitness, log enrichment relative to wild type (log ratio); higher = more active; in vitro selection for triplet polymerase activity
Outline: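 Input and output libraries were sequenced on Illumina after a single in vitro selection round, run in triplicate on PCR-built, transcribed mutant libraries of each subunit of a heterodimeric triplet polymerase ribozyme. Selection annealed libraries to a biotinylated primer, the partner subunit and triplets, incubated them frozen at −7 °C, then gel-excised extended constructs for streptavidin-bead capture and RT-PCR. Genotypes with ≥10 input reads and ≥1 read per output were kept. Fitness is the logarithm, taken in base 2, of genotype enrichment divided by wild-type enrichment, using inverse-variance-weighted replicate averages.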

Variant | polymerase ribozyme fitness (log ratio)
GGAUCUUCUCGAUCUAACAAAAAAGACAAAUCUGCCACAAAGCUUGAGAGCAUCUUCGGAUGCAGAGGCGGCAGCCUUCGGUGGCGCGAUAGCGCCAACGUUCUCAAGUAUGACACGCAAAACGCAUGCUCCGUUGUAUGGAGUUUAUCAUG [C108G G126A A137U] | ≤ -4.2
GGAUCUUCUCGAUCUAACAAAAAAGACAAAUCUGCCACAAAGCUUGAGAGCAUCUUCGGAUGCAGAGGCGGCAGCCUUCGGUGGCGCGAUAGCGCCAACGUUCUCAAUUAUGACACGCAAAACGCGUGCUCAGUUGAAAGGAGUUUAUCAUG [C108U C132A U139A] | ≤ -4.2
GGAUCUUCUCGAUCUAACAAAAAAGACAAAUCUGCCACAAAGCUUGAGAGCAUCUUCGGAUGCAGAGGCGGCAGCCUUCGGUGGCGCGAUAGCGCCAACGUUCUCAACGAUGACACGCAUAACGCGUGCUCCGUUGAAUAGAGUGUAUCACG [U109G A120U G140A U145G U151C] | ≤ -4.2
GGAUCUUCUCGAUCUAACAAAAAAGACAAAUCUGCCACAAAGCUUGAGAGCAUCUUCGGAUGCAGAGGCGGCAGCCUUCGGUGGCGCGAUAGCGCCAACGUUCUCAACGAUGACACGCAAAACGCGUGCUCCGUUGAAUUGAGUUUAUCAUG [U109G G140U] | -3.76
GGAUCUUCUCGAUCUAACAAAAAAGACAAAUCUGCCACAAAGCUUGAGAGCAUCUUCGGAUGCAGAGGCGGCAGCCUUCGGUGGCGCGAUAGCGCCAACGUUCUCAACGAUGACACGCAAAACGCGUGCUCCGUUGAACGGAGUUUAUCAUG [U109G U139C] | ≤ -4.2
GGAUCUUCUCGAUCUAACAAAAAAGACAAAUCUGCCACAAAGCUUGAGAGCAUCUUCGGAUGCAGAGGCGGCAGCCUUCGGUGGCGCGAUAGCGCCAACGUUCUCAACUGUGACACGCAAAACGCGUGUUCCGUUGAAUGGAGCUUAUCAUG [A110G C129U U144C] | ≤ -4.2
GGAUCUUCUCGAUCUAACAAAAAAGACAAAUCUGCCACAAAGCUUGAGAGCAUCUUCGGAUGCAGAGGCGGCAGCCUUCGGUGGCGCGAUAGCGCCAACGUUCUCAACUUUGACACGCAAAACGCGUGCUCCGUUGAAUCGAGUUUAUCAUG [A110U G140C] | ≤ -4.2
GGAUCUUCUCGAUCUAACAAAAAAGACAAAUCUGCCACAAAGCUUGAGAGCAUCUUCGGAUGCAGAGGCGGCAGCCUUCGGUGGCGCGAUAGCGCCAACGUUCUCAACUUGGACCCGCAAAACGCGUGCUCCGUUGAAUGGUGUUUAUCAUG [A110U U111G A115C A142U] | ≤ -4.2
GGAUCUUCUCGAUCUAACAAAAAAGACAAAUCUGCCACAAAGCUUGAGAGCAUCUUCGGAUGCAGAGGCGGCAGCCUUCGGUGGCGCGAUAGCGCCAACGUUCUCAACUUUGACACGCAAAACGCGAGCUCCGUUGAAUGGAGUUUAUCAUG [A110U U127A] | -4.06
GGAUCUUCUCGAUCUAACAAAAAAGACAAAUCUGCCACAAAGCUUGAGAGCAUCUUCGGAUGCAGAGGCGGCAGCCUUCGGUGGCGCGAUAGCGCCAACGUUCUCAACUAAGACACGCAGAACGCGUGGUCCGUUGACUGGAGUUUAUCAUG [U111A A120G C129G A138C] | ≤ -4.2
GGAUCUUCUCGAUCUAACAAAAAAGACAAAUCUGCCACAAAGCUUGAGAGCAUCUUCGGAUGCAGAGGCGGCAGCCUUCGGUGGCGCGAUAGCGCCAACGUUCUCAACUAAGACACGCAAAACGCGUGCUCCGUUGAAUAGAGUUUAUCAUG [U111A G140A] | ≤ -4.2
GGAUCUUCUCGAUCUAACAAAAAAGACAAAUCUGCCACAAAGCUUGAGAGCAUCUUCGGAUGCAGAGGCGGCAGCCUUCGGUGGCGCGAUAGCGCCAACGUUCUCAACUACGACACCCAAAACGCGUGCUCCGUUGAAUGGAGUUUAUCAUG [U111C G117C] | ≤ -4.2
GGAUCUUCUCGAUCUAACAAAAAAGACAAAUCUGCCACAAAGCUUGAGAGCAUCUUCGGAUGCAGAGGCGGCAGCCUUCGGUGGCGCGAUAGCGCCAACGUUCUCAACUAUAACACGCAAAACGCGUGCUCCGUUGAAUGGAGUUUAUCAUG [G112A] | -1.96
GGAUCUUCUCGAUCUAACAAAAAAGACAAAUCUGCCACAAAGCUUGAGAGCAUCUUCGGAUGCAGAGGCGGCAGCCUUCGGUGGCGCGAUAGCGCCAACGUUCUCAACUAUAACACGCAAAACGCGUGCUCCGUUGAAAUGAGUUUAUCAUG [G112A U139A G140U] | ≤ -4.2
GGAUCUUCUCGAUCUAACAAAAAAGACAAAUCUGCCACAAAGCUUGAGAGCAUCUUCGGAUGCAGAGGCGGCAGCCUUCGGUGGCGCGAUAGCGCCAACGUUCUCAACUAUCACACGCAAAACGCGUGCUCCGUUGAAUGGAGUUUAUCAUG [G112C] | -2.68
GGAUCUUCUCGAUCUAACAAAAAAGACAAAUCUGCCACAAAGCUUGAGAGCAUCUUCGGAUGCAGAGGCGGCAGCCUUCGGUGGCGCGAUAGCGCCAACGUUCUCAACUAUUACACGCAAAACGCGUGCUCCGUUGAAUGGAGUUUAUCAUG [G112U] | -2.77
GGAUCUUCUCGAUCUAACAAAAAAGACAAAUCUGCCACAAAGCUUGAGAGCAUCUUCGGAUGCAGAGGCGGCAGCCUUCGGUGGCGCGAUAGCGCCAACGUUCUCAACUAUGCCACGCAAAACGCGUGCUCCGUUGAAUGCAGUUUAUCAUG [A113C G141C] | ≤ -4.2
GGAUCUUCUCGAUCUAACAAAAAAGACAAAUCUGCCACAAAGCUUGAGAGCAUCUUCGGAUGCAGAGGCGGCAGCCUUCGGUGGCGCGAUAGCGCCAACGUUCUCAACUAUGGCAACCAAAACGCGUGCUCCGUUGAAUGGAGUUUAUCAUG [A113G C116A G117C] | ≤ -4.2
GGAUCUUCUCGAUCUAACAAAAAAGACAAAUCUGCCACAAAGCUUGAGAGCAUCUUCGGAUGCAGAGGCGGCAGCCUUCGGUGGCGCGAUAGCGCCAACGUUCUCAACUAUGUCACGCAAAACUCGUGCUCCGUUGAAUGGAGUUUAUCAUG [A113U G124U] | -2.07
